The source of these data is paper PMC4242493.

This is one part of the list. The list includes weakly bound sequences.

The target of the assay is MaxL homodimer (UniProt P61244). In words: universal protein-binding microarray (PBM). To be noted: PBS-based mixture, 10 nM His-tagged protein dimer, 2% milk, 200 ng/uL BSA, 50 ng/uL salmon testes DNA, 0.02% TX-100; detection with Alexa 488 anti-His …; high values mean tight binding; most listed sequences are background and not binding sites; double strand, one strand shown.
Chain of UniProt P61244 (P61244 whole entry): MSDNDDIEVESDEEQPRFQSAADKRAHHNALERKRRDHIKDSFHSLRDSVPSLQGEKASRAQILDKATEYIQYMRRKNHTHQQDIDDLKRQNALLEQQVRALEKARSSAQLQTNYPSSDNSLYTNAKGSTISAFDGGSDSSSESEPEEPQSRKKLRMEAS
As for TAAAATAA, the binding signal (normalized occupancy) is 0.0771.

For the sequence ATCTCCAT, the binding signal (normalized occupancy) worked out at 0.0864.

On to AAGAGGGC, for which the binding signal (normalized occupancy) worked out at 0.0738.

Turning to CGTGCCTC, the binding signal (normalized occupancy) was 0.0857.

For the sequence TCTCGGCA, the binding signal (normalized occupancy) came to 0.0689.

On to TCTCACAA, for which the binding signal (normalized occupancy) was 0.0786.

For CTCAAAGC, the binding signal (normalized occupancy) worked out at 0.0666.

Regarding ATAGAAAC, the binding signal (normalized occupancy) was determined as 0.0799.

On to GGTCCCCA, for which the binding signal (normalized occupancy) was determined as 0.0707.

Regarding GGCTGACA, the binding signal (normalized occupancy) was 0.076.

In the case of GACGAAAA, the binding signal (normalized occupancy) stood at 0.0714.

For the sequence AATTCAGA, the binding signal (normalized occupancy) was 0.0688.

As to AGCTACAT, the binding signal (normalized occupancy) was 0.0756.

Consider AGTGACAG, for which the binding signal (normalized occupancy) stood at 0.0692.

In the case of CACTTTCG, the binding signal (normalized occupancy) was 0.0732.

GCAGACAA: the binding signal (normalized occupancy) was 0.0765.

Regarding CCGATGCA, the binding signal (normalized occupancy) turned out to be 0.0794.

With GACTTGCA, the binding signal (normalized occupancy) came out at 0.0709.

AACCCTAT: the binding signal (normalized occupancy) was 0.0781.

Consider AACATTGT, for which the binding signal (normalized occupancy) was determined as 0.0788.

Regarding ACCGATGC, the binding signal (normalized occupancy) was found to be 0.0751.

Regarding AGTGCAAT, the binding signal (normalized occupancy) came to 0.0754.

With CGAGCTCG, the binding signal (normalized occupancy) came to 0.0651.

As to CTACATCA, the binding signal (normalized occupancy) worked out at 0.0774.

With ACCAGGAA, the binding signal (normalized occupancy) was 0.0703.

Consider CTCCTGAC, for which the binding signal (normalized occupancy) was determined as 0.077.

As to ACGCGCGG, the binding signal (normalized occupancy) stood at 0.0929.

Turning to GTCAGAAA, the binding signal (normalized occupancy) worked out at 0.0761.

Consider CTCCCGTC, for which the binding signal (normalized occupancy) was 0.0706.

In the case of GAATATTC, the binding signal (normalized occupancy) worked out at 0.0728.

As to GGGTAGAC, the binding signal (normalized occupancy) was found to be 0.0722.

As for ATTCCTGA, the binding signal (normalized occupancy) was found to be 0.075.

As for ACACCAAG, the binding signal (normalized occupancy) was determined as 0.0798.

Consider AGAATCTG, for which the binding signal (normalized occupancy) was found to be 0.0763.

AAAAGAAG: the binding signal (normalized occupancy) came out at 0.0697.

Turning to GACGGCTC, the binding signal (normalized occupancy) stood at 0.0688.

Consider CTGTCGGA, for which the binding signal (normalized occupancy) amounted to 0.073.

For CTATGCAG, the binding signal (normalized occupancy) worked out at 0.0757.

In the case of ACAACTAC, the binding signal (normalized occupancy) worked out at 0.0742.

As to AGTATTTA, the binding signal (normalized occupancy) turned out to be 0.0747.

For the sequence ATCGCGCC, the binding signal (normalized occupancy) was 0.0698.

For CCACTCGC, the binding signal (normalized occupancy) turned out to be 0.0812.

ACGGGGTG: the binding signal (normalized occupancy) was determined as 0.0805.

Regarding CGTTCTTC, the binding signal (normalized occupancy) is 0.0759.

Turning to TACTCCGA, the binding signal (normalized occupancy) was found to be 0.0777.

In the case of CCCTAAGA, the binding signal (normalized occupancy) was determined as 0.0711.

GCTCTAAC: the binding signal (normalized occupancy) amounted to 0.0729.

Consider CCGGCAAA, for which the binding signal (normalized occupancy) worked out at 0.067.

For AAGACTAT, the binding signal (normalized occupancy) stood at 0.0779.

ACTACTCT: the binding signal (normalized occupancy) is 0.0769.

On to GCCGGGAC, for which the binding signal (normalized occupancy) turned out to be 0.0616.

For ACCTCACT, the binding signal (normalized occupancy) came out at 0.0781.

Turning to AAATCGCG, the binding signal (normalized occupancy) came to 0.0713.

For the sequence CCGCACCG, the binding signal (normalized occupancy) came out at 0.0752.

With ACTGGTGG, the binding signal (normalized occupancy) is 0.0746.

As to ACAAAACC, the binding signal (normalized occupancy) worked out at 0.0746.

With CCCAAGAG, the binding signal (normalized occupancy) was found to be 0.0686.

For the sequence AGCCGCGA, the binding signal (normalized occupancy) is 0.0669.

In the case of AGAGGCAG, the binding signal (normalized occupancy) was found to be 0.075.

In the case of ACACCGTC, the binding signal (normalized occupancy) came to 0.0702.

As to ATGAAGGA, the binding signal (normalized occupancy) is 0.0797.

TAAGTTAA: the binding signal (normalized occupancy) turned out to be 0.0772.

For the sequence CCTCATTA, the binding signal (normalized occupancy) was determined as 0.0836.

For TAGCCTCA, the binding signal (normalized occupancy) stood at 0.0748.

In the case of ATAATAAC, the binding signal (normalized occupancy) came to 0.082.

Turning to GAGACCCA, the binding signal (normalized occupancy) turned out to be 0.0745.

With ACAGGGAA, the binding signal (normalized occupancy) worked out at 0.0743.

As for GACCGGCA, the binding signal (normalized occupancy) was found to be 0.0692.

For the sequence ACGTAAGG, the binding signal (normalized occupancy) was 0.073.

As for AGGGGAGG, the binding signal (normalized occupancy) came out at 0.0793.

For GCTAGTGA, the binding signal (normalized occupancy) was 0.0759.

Turning to GTTTATAA, the binding signal (normalized occupancy) amounted to 0.0757.

For GTTCCACA, the binding signal (normalized occupancy) was 0.0784.

Take CGCATGCG: the binding signal (normalized occupancy) was 0.133.

In the case of CTGACAAA, the binding signal (normalized occupancy) was 0.0791.

Consider ACTGACGC, for which the binding signal (normalized occupancy) is 0.0698.

ACATGCTG: the binding signal (normalized occupancy) was 0.124.

GTGACACA: the binding signal (normalized occupancy) was found to be 0.0783.

On to ACGTTGTG, for which the binding signal (normalized occupancy) turned out to be 0.0787.

On to ACATGGCG, for which the binding signal (normalized occupancy) is 0.098.

As for CCAAAAAG, the binding signal (normalized occupancy) is 0.0702.

For the sequence ACCTCAGA, the binding signal (normalized occupancy) turned out to be 0.0784.

Regarding CCGCCCGC, the binding signal (normalized occupancy) turned out to be 0.0678.

For the sequence ATCGCCCG, the binding signal (normalized occupancy) worked out at 0.073.

As to TTTGAAAA, the binding signal (normalized occupancy) was determined as 0.0717.

As to CCAGGGCC, the binding signal (normalized occupancy) was 0.0636.

In the case of CCAATGTC, the binding signal (normalized occupancy) worked out at 0.0732.

Consider CGCGACTC, for which the binding signal (normalized occupancy) was determined as 0.0699.

Consider GCAAGCAC, for which the binding signal (normalized occupancy) came to 0.0718.

For CTGCGAAG, the binding signal (normalized occupancy) came out at 0.0641.

As for GACATAGC, the binding signal (normalized occupancy) is 0.077.

For ATGCGACG, the binding signal (normalized occupancy) was 0.0739.

For the sequence AGAGTACC, the binding signal (normalized occupancy) is 0.0751.

As to CGCATGTC, the binding signal (normalized occupancy) is 0.105.

For CGCTTCAG, the binding signal (normalized occupancy) came to 0.0737.

Take CGGACAGA: the binding signal (normalized occupancy) is 0.0651.

For CAATAAGC, the binding signal (normalized occupancy) is 0.0705.

On to AGGACGCA, for which the binding signal (normalized occupancy) is 0.0749.

In the case of GCTTAACC, the binding signal (normalized occupancy) is 0.0694.

For the sequence ATGCGTCG, the binding signal (normalized occupancy) came to 0.0835.

For TCGTTAAA, the binding signal (normalized occupancy) was found to be 0.0773.

As to CGGGACCC, the binding signal (normalized occupancy) amounted to 0.076.

In the case of AGCGAACC, the binding signal (normalized occupancy) came to 0.0722.

In the case of AGGCTGTC, the binding signal (normalized occupancy) came out at 0.0715.

Turning to CTGACACC, the binding signal (normalized occupancy) was 0.0794.

As to CGCCAACA, the binding signal (normalized occupancy) is 0.0741.

Turning to CATTATCC, the binding signal (normalized occupancy) turned out to be 0.0847.

As for ACCAGCCC, the binding signal (normalized occupancy) turned out to be 0.0728.

Consider CTGTTAGA, for which the binding signal (normalized occupancy) amounted to 0.0767.

Consider GTGACTAA, for which the binding signal (normalized occupancy) stood at 0.0791.

With GCTGGCAA, the binding signal (normalized occupancy) came to 0.0704.

Turning to CAACAGGC, the binding signal (normalized occupancy) worked out at 0.0712.

Take AAGCAGTG: the binding signal (normalized occupancy) is 0.0725.

As to CTGCCAAA, the binding signal (normalized occupancy) is 0.0702.

Regarding CATCCTCG, the binding signal (normalized occupancy) stood at 0.0772.

Consider ACTCTACC, for which the binding signal (normalized occupancy) amounted to 0.0729.

Turning to AGAGAAGC, the binding signal (normalized occupancy) was 0.0702.

Take ATACTCTG: the binding signal (normalized occupancy) came to 0.0814.

For the sequence AAGCGAAC, the binding signal (normalized occupancy) worked out at 0.0692.

With AGAATTCG, the binding signal (normalized occupancy) turned out to be 0.073.

As to GCTCATTA, the binding signal (normalized occupancy) came to 0.0768.

Consider ACACCCGG, for which the binding signal (normalized occupancy) came to 0.0767.

Regarding ATGTTGTA, the binding signal (normalized occupancy) stood at 0.082.

As to CAAACAGA, the binding signal (normalized occupancy) is 0.0744.

For ATTGAGGA, the binding signal (normalized occupancy) is 0.0797.

On to GGTACCGA, for which the binding signal (normalized occupancy) is 0.0679.

As to TCATGGGA, the binding signal (normalized occupancy) amounted to 0.0807.

In the case of CCTTCCCC, the binding signal (normalized occupancy) was 0.0759.

In the case of AACGGGCC, the binding signal (normalized occupancy) came to 0.0682.

Regarding ATTTCTGC, the binding signal (normalized occupancy) was found to be 0.0742.

On to GGATCCAC, for which the binding signal (normalized occupancy) came to 0.0765.

In the case of ACAAATAC, the binding signal (normalized occupancy) came out at 0.0725.

As for GATGCGGA, the binding signal (normalized occupancy) was 0.0791.

GCCACTGA: the binding signal (normalized occupancy) came out at 0.0687.

On to AATTCACA, for which the binding signal (normalized occupancy) worked out at 0.0775.

As to CCTCATCC, the binding signal (normalized occupancy) amounted to 0.0759.

On to AACTTCCG, for which the binding signal (normalized occupancy) is 0.0736.

Consider GGCCGGGA, for which the binding signal (normalized occupancy) amounted to 0.0668.

On to GGAAGCCC, for which the binding signal (normalized occupancy) was determined as 0.0691.

In the case of CTATAATA, the binding signal (normalized occupancy) was 0.0793.

AAGATCTC: the binding signal (normalized occupancy) was found to be 0.0783.

As for GCGGGAAC, the binding signal (normalized occupancy) stood at 0.0701.

GTTAGGTA: the binding signal (normalized occupancy) amounted to 0.0755.

TAGTTAGA: the binding signal (normalized occupancy) was 0.0768.

On to CGGAACCA, for which the binding signal (normalized occupancy) was 0.0712.

For the sequence AGCAGGCC, the binding signal (normalized occupancy) turned out to be 0.0727.

In the case of GGCTATTA, the binding signal (normalized occupancy) amounted to 0.0759.

As for CCACCCGA, the binding signal (normalized occupancy) was 0.0767.

For CGCCCGAC, the binding signal (normalized occupancy) was 0.0679.

AGCTATTC: the binding signal (normalized occupancy) was 0.0709.

Turning to CCAAATGG, the binding signal (normalized occupancy) was determined as 0.0756.

For the sequence GCTTTCCC, the binding signal (normalized occupancy) was determined as 0.0669.

For ATTAGCAC, the binding signal (normalized occupancy) came out at 0.076.

In the case of CCCGAGAC, the binding signal (normalized occupancy) turned out to be 0.0697.

Regarding CGCCGTAC, the binding signal (normalized occupancy) was 0.0716.

On to GCAGCCCA, for which the binding signal (normalized occupancy) was 0.0744.

On to CCAATTTA, for which the binding signal (normalized occupancy) came out at 0.0781.

Take TCGACCCA: the binding signal (normalized occupancy) worked out at 0.0726.

For the sequence AAAGTTTC, the binding signal (normalized occupancy) amounted to 0.0721.

Regarding GGAGCACA, the binding signal (normalized occupancy) came to 0.0826.

On to ACGCTACC, for which the binding signal (normalized occupancy) was determined as 0.079.

With CAAAATCG, the binding signal (normalized occupancy) was 0.0693.

On to ACAGTCTA, for which the binding signal (normalized occupancy) stood at 0.0732.

Regarding CTAACGAA, the binding signal (normalized occupancy) came to 0.0676.

Regarding CGGCGAGC, the binding signal (normalized occupancy) stood at 0.069.

For the sequence CTAGGCTC, the binding signal (normalized occupancy) came to 0.0662.

As to AATTCAGT, the binding signal (normalized occupancy) was found to be 0.0721.

For the sequence AGGTGCCA, the binding signal (normalized occupancy) worked out at 0.0807.

Turning to GTACAGAA, the binding signal (normalized occupancy) is 0.0732.

With CTCAAACA, the binding signal (normalized occupancy) was determined as 0.0768.

AAGTTGAT: the binding signal (normalized occupancy) turned out to be 0.0742.

As to CCCTTAGA, the binding signal (normalized occupancy) was 0.0721.
